Data reported in a compilation of properties of binary mixtures (doi:10.1016/j.fluid.2006.05.028).
The densities may have been worked out from excess volumes.

Assay: xn = mol fraction of the nth substance listed
Details: 298.15 K, 101.3 kPa

[Br][Al]([Br])[Br] + CC[n+]1ccccc1.[Br-]
Details | mass density [kg/m3]
x2 = 0.65 | 1626

CCOS(=O)(=O)[O-].CC[n+]1ccn(C)c1 + O
Details | mass density [kg/m3]
x1 = 0.004 | 1007
x1 = 0.0084 | 1016
x1 = 0.0133 | 1025
x2 = 0.6983 | 1187
x2 = 0.7663 | 1174
x2 = 0.8139 | 1161
x2 = 0.8974 | 1123
x2 = 0.9148 | 1111
x2 = 0.9413 | 1088
x2 = 0.9606 | 1066

CC[n+]1ccn(C)c1.F[B-](F)(F)F + O
Details | mass density [kg/m3]
x1 = 0.0158 | 1028
x2 = 0 | 1279
x2 = 0.3664 | 1253
x2 = 0.5498 | 1229
x2 = 0.7331 | 1187
x2 = 0.8999 | 1110
x2 = 0.9166 | 1098
x2 = 0.9428 | 1077
x2 = 0.9533 | 1067
x2 = 0.9625 | 1057
x2 = 0.9778 | 1038
